Molecular target: T1, mSin3A (UniProt Q60520 1-1274, 35S-methionine label)
T1 construct: also called 35S Methionine labeled mSin3A
T1 sequence (looked up): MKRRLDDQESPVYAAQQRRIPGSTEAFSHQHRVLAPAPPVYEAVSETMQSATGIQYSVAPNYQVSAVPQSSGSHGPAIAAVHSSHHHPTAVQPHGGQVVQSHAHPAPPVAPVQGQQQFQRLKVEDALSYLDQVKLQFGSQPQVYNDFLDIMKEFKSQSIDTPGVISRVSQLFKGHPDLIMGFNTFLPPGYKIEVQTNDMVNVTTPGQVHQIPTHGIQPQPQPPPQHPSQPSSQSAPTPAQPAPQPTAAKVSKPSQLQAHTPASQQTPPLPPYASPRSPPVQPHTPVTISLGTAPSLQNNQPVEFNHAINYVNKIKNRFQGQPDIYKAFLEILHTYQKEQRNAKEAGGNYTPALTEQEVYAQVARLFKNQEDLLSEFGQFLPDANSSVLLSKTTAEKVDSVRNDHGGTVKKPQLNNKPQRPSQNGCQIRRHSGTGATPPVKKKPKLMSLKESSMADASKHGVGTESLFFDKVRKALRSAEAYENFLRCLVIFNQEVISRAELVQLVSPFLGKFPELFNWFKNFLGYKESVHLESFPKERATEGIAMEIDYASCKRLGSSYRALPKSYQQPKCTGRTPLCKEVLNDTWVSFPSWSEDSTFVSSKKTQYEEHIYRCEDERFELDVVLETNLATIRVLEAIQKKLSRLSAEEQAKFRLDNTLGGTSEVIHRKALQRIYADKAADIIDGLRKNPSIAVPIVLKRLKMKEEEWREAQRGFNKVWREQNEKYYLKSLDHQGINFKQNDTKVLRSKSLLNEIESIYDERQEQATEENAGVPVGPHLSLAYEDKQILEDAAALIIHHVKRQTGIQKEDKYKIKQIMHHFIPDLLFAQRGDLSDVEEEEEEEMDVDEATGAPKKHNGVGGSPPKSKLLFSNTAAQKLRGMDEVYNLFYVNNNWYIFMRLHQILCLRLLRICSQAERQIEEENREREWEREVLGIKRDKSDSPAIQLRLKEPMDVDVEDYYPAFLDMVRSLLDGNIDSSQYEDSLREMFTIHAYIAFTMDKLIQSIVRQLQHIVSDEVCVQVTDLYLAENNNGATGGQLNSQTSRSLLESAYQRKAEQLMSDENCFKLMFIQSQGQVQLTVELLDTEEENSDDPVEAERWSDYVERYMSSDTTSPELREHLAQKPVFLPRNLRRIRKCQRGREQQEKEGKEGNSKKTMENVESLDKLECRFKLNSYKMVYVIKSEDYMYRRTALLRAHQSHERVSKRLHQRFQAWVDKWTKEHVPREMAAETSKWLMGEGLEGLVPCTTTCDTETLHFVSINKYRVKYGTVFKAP
Assay: GST pull-down

binding result: no binding
B1: GST (enzyme)
chain: not shown
notes: Control matrix; also called GST alone; glutathione-S-transferase
